Reference: the supplement of paper PMC11417369
± gives the standard deviation of the averaged measurements. This is one part of the list.

These sequences were tested on PfAP2-EXP AP2 domain (GST-tagged) (assay: gcPBM binding intensity (ln(normalized median fluorescence intensity)); higher = stronger DNA binding).
Summary of the method: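 Plasmodium falciparum DNA-binding domains carrying a GST tag were expressed in E. coli and applied for 1 h, at about 25 μg on average, to an Agilent 4 × 180k array. The array held primer-extended double-stranded 36-bp intergenic genomic probes together with negative controls, and binding took place in 1× PBS with 1% milk, 0.2 mg/ml BSA, 0.5% salmon testes DNA and 0.03% Triton X-100. An Alexa488 anti-GST antibody detected bound protein, and the array was scanned at 488 nm. Binding intensity is taken as the highest Masliner-normalised natural-log median intensity across replicate spots of either probe orientation.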

| Sequence | gcPBM binding intensity (ln) |
| --- | --- |
| TTTGTTTTATGTGGTTGTACACAAATACAATTTAAA [XGTACX_site5156] | 8.46 ± 0.28 |
| TTTTTTATTAAATATATATAATAATAATAATTTGTA [CACACA_negctrl_site1719] | 7.9 ± 0.37 |
| TTATAATAAATATTTATTATATATAATATATATTAC [CACACA_negctrl_site1802] | 8.3 ± 0.35 |
| TATATTATATATTTATGTACGTATTTGTAAAAAGAT [XGTACX_site3444] | 8.76 ± 0.31 |
| ATAATAATTATATCAGTGCGCATATATATTTATTTA | 8.49 ± 0.2 |
| GTTTCCTTAATATTCACACACATATCTATAATATAT [CACACA_site6959] | 8.9 ± 0.38 |
| TTTATATGCAATTAAGTGCATAAGAAAAAAAAAGGA [GTGCAC_site9966] | 8.78 ± 0.12 |
| TTATAAAATAAACTTACACACATGAAATATTATAGT [CACACA_site7000] | 8.39 ± 0.32 |
| CAAACAAATTGTGAAACACACATATTTATATTTATA [CACACA_site7030] | 8.24 ± 0.3 |
| ATTATACAAAATGGTAAGGAAAAGGAAATTTTTTTT [CACACA_negctrl_site1090] | 8.25 ± 0.51 |
| CAATATTATATATATACACACATAATCTGTAAAAAC [CACACA_site1068] | 8.56 ± 0.42 |
| AAAAAAAAAAATATCACACACACATAAATATAAACA [CACACA_site7138] | 8.6 ± 0.61 |
| CATATATATATATATACACACATATATATTTTCTTT [CACACA_site1457] | 8.69 ± 0.15 |
| AAAGTAGGCTTATATGCACACTTTGAAATATTATAA [CACACA_site5117] | 8.41 ± 0.2 |
| ATGTCAAATTTTTGTGCACACATATATAGTTATTAT [CACACA_site2242] | 9.16 ± 0.13 |
| TATTTATAAATTTACACACACACATGGGAACATAAA [CACACA_site5111] | 8.98 ± 0.43 |
| ATAAAAATTGATTATACACACGCGCACCCACAACAA [CACACA_site3536] | 9.205 ± 0.049 |
| TAAGGATAAATAAAATGAAATGAAATAAATAAATGA [XGTACX_negctrl_site539] | 8.62 ± 0.46 |
| TATATATATCAGCAATGTACACAATGCATATTATAT [XGTACX_site4836] | 8.38 ± 0.24 |
| TTATTTTATTTTAAAAAAAACAATATAAATTCAAAG [GTGCAC_negctrl_site57] | 8.19 ± 0.39 |
| TCTACAATTATAATTACACACTATAAAAAAGAAAGA [CACACA_site2984] | 8.78 ± 0.41 |
| ATTTTTTTTTTTTTTTTTTTTTTTTTTTGATTTGTG [CACACA_negctrl_site1391] | 7.84 ± 0.53 |

| Sequence | gcPBM binding intensity (ln) |
| --- | --- |
| AAAAATAGGAACCAATATCCAACGTGACTTTATAAT [CACACA_negctrl_site1011] | 8.6 ± 0.48 |
| AAAATAATTATGAATTGTACAGGTTTTTTTTTTTTT [XGTACX_site220] | 8.36 ± 0.33 |
| GGAAAAAAAAAAAAAAAACACACGGTACATTCAAAC [CACACA_site2715] | 8.79 ± 0.65 |
| AAAAAATTTTTAAGCACACACATAGATAATATATAT [CACACA_site1555] | 8.93 ± 0.37 |
| ATATATTTTCAAAAAAGTAAATCAAAATAAATATAT [TGCATGCA_negctrl_site319] | 8.62 ± 0.25 |
| TCCAAATACAACTACACACAAACAAAAATTATATAT [CACACA_site881] | 8.67 ± 0.57 |
| TATAAAAATATATTTACACACTATATATATCGAAAG [CACACA_site1700] | 8.52 ± 0.38 |
| ATGGTTTAGTTATATACACACTCGAAAATAACGACA [CACACA_site7520] | 8.6 ± 0.49 |
| AAATAAAATTTTATGTGTACGCAAAAAGTTGTAAGC [XGTACX_site8911] | 9.13 ± 0.35 |
| TTAAAATTAATTCACCAGTATTAAAATAAAAACGAA [CACACA_negctrl_site1428] | 8.73 ± 0.42 |
| TTTTTTTTAAGAGATAGTACATAAATATTATAATAT [XGTACX_site4685] | 8.47 ± 0.4 |
| AAAATTTTTCTTAAAGCATGCACAATTAAGAAGACG [TGCATGCA_site883] | 9.54 ± 0.55 |
| ATATTAATATATATGTTTTATTACCATTTTATGTAT [CACACA_negctrl_site1761] | 8.6 ± 0.48 |
| AAGATATATATAGAAAGTACTTATATTTGTATAATT [XGTACX_site8855] | 8.62 ± 0.24 |
| TACAATCTAAAATACACACACACAAACATATATTTA [CACACA_site3702] | 8.52 ± 0.48 |
| TGAAAAAATATAAAATATAAAATAAAAAATATAAAA [GTGCAC_negctrl_site536] | 8.38 ± 0.41 |
| AATAAATAAATATATACACACATATATATATAATAT [CACACA_site921] | 8.29 ± 0.21 |
| TTAAAAATATATATAACACACACATAATATATATAT [CACACA_site8811] | 9.4 ± 0.13 |
| TATTTTTATTTAGGACGTACAAAAATAAATCATATT [XGTACX_site1448] | 8.57 ± 0.2 |
| TTTTTTTTTCCCGTAAATATTGAGACAACCATAATG [CACACA_negctrl_site41] | 8.39 ± 0.4 |
| TTAGAAACATTGAAAGCATGCAATATTACTTTATAC [TGCATGCA_site522] | 9.13 ± 0.33 |
| TCCTTATATTTGCACACACACACAAGAAAATGAAAA [CACACA_site6613] | 8.85 ± 0.27 |

| Sequence | gcPBM binding intensity (ln) |
| --- | --- |
| TATAAATATTACGGTAGTACTATACATATATATAAT [XGTACX_site7442] | 8.6 ± 0.23 |
| CATATAAAAAGACACACACACACATATATATATATA [CACACA_site940] | 10.3 ± 0.18 |
| TATATATTCAAATGTGCATGTAAAAAAAAAAAAAAG [TGCATGCA_site126] | 9.03 ± 0.18 |
| TAACCATACATACATACACACACACCCACATATATA [CACACA_site8951] | 8.8 ± 0.78 |
| ATAAAAAACTCAGAGCGTACATAATTTTTTCTATTT [XGTACX_site2803] | 8.44 ± 0.4 |
| TCCCTAGTATACCTTAGTACATATATTATTTTGCAC [XGTACX_site2174] | 8.98 ± 0.11 |
| AGACATTAATGAAGGTGTACATATATTTGACAGAAT [XGTACX_site655] | 9 ± 0.47 |
| GGCATATATATATGCACACATACATAAATACATGTG [CACACA_site5999] | 8.805 ± 0.035 |
| CAGGAGAGTAAAAGAGTGCGAATTATTATTTTGGAG | 8.76 ± 0.36 |
| TCATTCATATGTTACACACACACACGCACATAAAAA [CACACA_site7514] | 8.85 ± 0.45 |
| TATATAATATAATTGACATGCAACCATTTTCGTGAA [TGCATGCA_site458] | 9 ± 0.2 |
| AAGTTGGAAAGGTTATGTACTTATTTTTTAAAATAA [XGTACX_site204] | 8.27 ± 0.45 |
| TGTTTAAAGGAAAAGGAGTAGTCTATTATATTATCT [CACACA_negctrl_site858] | 8.38 ± 0.23 |
| GATTTACAACACGAACGTACAGAACAAAAAGGAAAA [XGTACX_site6501] | 8.96 ± 0.49 |
| ATCTATATCTATAATACACACTAAAGTAACAGAATA [CACACA_site7370] | 8.72 ± 0.42 |
| GTATCTCATTATTCGTGTACTAAACACATAAAAATA [XGTACX_site2262] | 8.74 ± 0.2 |
| TATAAAAATAAAAAAAGTACACATAAAAATATATAT [XGTACX_site5189] | 8.77 ± 0.33 |
| AATGTAAAAGTAAACACACACATATATATATACATA [CACACA_site2484] | 8.75 ± 0.49 |
| CATATATACACATACACACACACACGGACACGCACA [CACACA_site6910] | 8.87 ± 0.53 |
| TATTGTATTTAATAAACACACAATATTAAAAATATA [CACACA_site4725] | 8.16 ± 0.3 |
| ATACACATATATGTGTGTACTCACCTTTTAATATGA [XGTACX_site4349] | 8.46 ± 0.29 |
| GGAATACAGGAAAAAAGTACAGAAAATGGAATATTA [XGTACX_site5053] | 8.97 ± 0.45 |

| Sequence | gcPBM binding intensity (ln) |
| --- | --- |
| TCTTTCTTATATTTATATAATTATATTTATTTTATA [GTGCAC_negctrl_site300] | 8.74 ± 0.38 |
| TTTAATTTGTTATACACACACAAAAAAAGTTATAAA [CACACA_site7779] | 8.45 ± 0.42 |
| ATATAATGTTATAGAAGTACATGAAATACTTATTTA [XGTACX_site8850] | 8.16 ± 0.25 |
| AACAATATATTGAATAGTACATATATATAAACATAT [XGTACX_site2811] | 8.6 ± 0.37 |
| AAAATAAAATAACGTTGTACAACATCATTTCTATAT [XGTACX_site5080] | 8.45 ± 0.37 |
| AACATTTATAAATATTGTACATATAGATTTATATAT [XGTACX_site2662] | 8.34 ± 0.34 |
| TATATATATATATACACACACACCCTAAAAATATAT [CACACA_site1611] | 10 ± 0.45 |
| AAAATTACTATATGAACACACATGATTAGATATATG [CACACA_site3083] | 8.46 ± 0.38 |
| TGAAAGAATTAATTTTGTACATATAAAAATTTTATT [XGTACX_site8500] | 8.26 ± 0.41 |
| TTTTTATTTTTAAAGGCACACACATTTTTATTTTTA [CACACA_site8624] | 8.41 ± 0.31 |
| TATTTGTGCCAAAAATGAAAAAGTTTGTATAAAACC [CACACA_negctrl_site1406] | 8.65 ± 0.3 |
| AAATGAAATTTGTATACACACAAATATATTTATATA [CACACA_site6525] | 8.26 ± 0.4 |
| AATAAATAAATAATATAATGAAATTATAAAATGTGG [TGCATGCA_negctrl_site385] | 8.44 ± 0.32 |
| TATTAAAAAAATGTATGTACATATATAAATTTTTTT [XGTACX_site1094] | 8.59 ± 0.52 |
| AATGATCATAAATACACACACACAAAAAAAAAAAAA [CACACA_site6072] | 8.31 ± 0.52 |
| AAAGTAAAAGAAAGCACACACACATGTATATATGTA [CACACA_site3857] | 8.73 ± 0.31 |
| TTTCTCCCATTTTTTAGTACACAAAATATATATGTA [XGTACX_site7218] | 8.82 ± 0.36 |
| GATGGATTTATTTAAAGTACATATTTAAAAAACTGT [XGTACX_site7567] | 8.24 ± 0.25 |
| AAAAAAAAAAAATATACACACACATATATATATATA [CACACA_site9123] | 10 ± 0.45 |
| AACAACAATTTCGTCATACACACATTCAGAATATAT [CACACA_site2371] | 8.62 ± 0.47 |
| CAGGCGTGAAATATACGTACACACATTATTTATATT [XGTACX_site5337] | 8.52 ± 0.33 |
| ATATAAATTATTTACACACAAACATTTATACTTTTA [CACACA_site3448] | 8.51 ± 0.4 |
